# Measured values taken from PubChem BioAssay AID463254 (National Center for Advancing Translational Sciences (NCATS), 2010).
# About 40 (0.01%) of roughly 330,000 compounds were called active. Inconclusive results, whose numbers are uncertain, are shown with a selection of clear calls. Calls come from the whole dose curve; as a rule, active = well fitted inhibition curve with a large enough effect; inconclusive = small, poorly fitted or top-dose-only effect, or effect the other way; inactive = flat fitted curve, though single readings scatter. Where the call is inconclusive, the potency comes from a doubtful curve fit.
# Target: Ubiquitin carboxyl-terminal hydrolase 2 (Homo sapiens) (UniProt O75604)
# Sequence of UniProt O75604 (O75604 whole entry, looked up): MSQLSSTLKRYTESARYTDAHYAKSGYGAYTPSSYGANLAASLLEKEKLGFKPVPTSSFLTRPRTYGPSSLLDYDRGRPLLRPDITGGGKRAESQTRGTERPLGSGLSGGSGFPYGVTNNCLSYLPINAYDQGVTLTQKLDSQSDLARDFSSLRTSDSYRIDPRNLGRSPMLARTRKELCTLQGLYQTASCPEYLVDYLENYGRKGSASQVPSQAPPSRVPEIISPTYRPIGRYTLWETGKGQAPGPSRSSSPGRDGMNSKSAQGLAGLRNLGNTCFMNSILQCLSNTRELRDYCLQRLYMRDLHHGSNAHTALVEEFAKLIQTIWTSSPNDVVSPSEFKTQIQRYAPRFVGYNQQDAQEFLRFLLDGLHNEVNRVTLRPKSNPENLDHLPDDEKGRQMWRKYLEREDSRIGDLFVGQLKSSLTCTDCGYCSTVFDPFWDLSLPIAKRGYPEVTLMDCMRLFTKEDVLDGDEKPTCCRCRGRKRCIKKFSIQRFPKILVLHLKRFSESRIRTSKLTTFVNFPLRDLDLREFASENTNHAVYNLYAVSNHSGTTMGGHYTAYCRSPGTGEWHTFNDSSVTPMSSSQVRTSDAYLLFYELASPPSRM
# Experiment: qHTS Assay for Inhibitors of Ubiquitin-specific Protease USP2a Using CHOP2 as the Reporter;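 for activity change, negative = inhibition: plate controls were DMSO wells for no effect and full inhibition by NEM control for full effect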
# Details: USP2 core, Ub-CHOP2 coupled fluorogenic reporter, 485/531; series mostly up to 38.3 µM; activity change, negative = inhibition: at the top concentration
# In short: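 USP2 core (10nM final) preincubated 30min RT with compound in 20mM Tris-HCl pH 8.0, 2mM CaCl2, 2mM beta-mercaptoethanol, 0.05% CHAPS; 25nM Ub-CHOP2 plus 25nM reporter substrate added, fluorescence (Ex485/Em531) read after 60min.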
# Potency is the fitted concentration of half-maximal effect; tags give direction and shape of the fitted curve or compound fluorescence and quenching.
Compound,Potency,"activity change, negative = inhibition"
O=C1NC(=O)C2=Cc3ccc(O)cc3OC2(O)N1 (stereo not given),"inconclusive: 12.6 µM [fluorescent, partial curve]",–
O=[N+]([O-])c1ccc(NCc2ccccc2)c2nonc12,"inconclusive: 8.91 µM [fluorescent, partial curve]",–
CCOC(=O)c1ccc(NC(=O)c2c(O)[nH]c(=O)[nH]c2=O)cc1,"inconclusive: 22.4 µM [fluorescent, partial curve]",–
Cc1ccccc1-n1c(O)c(/C=C/C=Nc2ccccc2)c(=O)[nH]c1=O,"inconclusive: 12.6 µM [fluorescent, single point]",–
C=CCN1C(=O)NC(=O)/C(=C/c2ccoc2)C1=O,"inconclusive: 14.1 µM [fluorescent, single point]",–
Nc1ccc2nonc2c1[N+](=O)[O-],"inconclusive: 28.2 µM [fluorescent, single point]",–
Nc1ccc(S(=O)(=O)N2CCCCC2c2cccnc2)cc1 (stereo not given),"inconclusive: 5.01 µM [falling, single point]",–
CCCCCn1c(N)c(C(=O)NCc2cccs2)c2nc3ccccc3nc21,–,inactive: 1.86%
CCC(C)NC(=O)c1c(N)n(Cc2ccc3c(c2)OCO3)c2nc3ccccc3nc12 (stereo not given),–,inactive: -4.92%
CC1Oc2cc3c(-c4c(O)cc(O)c5c(O)c6c(cc45)OC(C)C(C)C6=O)c(O)cc(O)c3c(O)c2C(=O)C1C (stereo not given),"inconclusive: 20 µM [falling, single point]",–
CCCCN1C(=O)/C(=C\c2ccco2)C(=O)N(CCc2ccccc2)C1=O,"inconclusive: 28.2 µM [falling, single point]",–
CC(C)n1c(/C=C/[C@H](O)C[C@H](O)CC(=O)O)c(-c2ccc(F)cc2)c2ccccc21,"inconclusive: 28.2 µM [falling, single point]",–
Cc1nn(Cc2ccccc2)c(C)c1C=C1C(=O)NC(=S)NC1=O,–,inactive: -0.204%
CCOc1ccc(CN2CCCC(C(=O)c3ccccc3OC)C2)cc1 (stereo not given),–,inactive: 0.39%
O=C(N/N=C/c1c(O)n(Cc2ccccc2)c(=O)[nH]c1=O)c1ccccc1O,–,inactive: -1.31%
CN1CCN(c2ccc([N+](=O)[O-])c3no[n+]([O-])c23)CC1,"inconclusive: 14.1 µM [fluorescent, single point]",–
CCN(CC)C(=O)c1ccc(NC(=O)c2cccc(S(=O)(=O)N3CCN(Cc4ccccc4)CC3)c2)cc1,–,inactive: 1.09%
COc1ccc(/C=C2\Oc3cc(OC(=O)N4CCOCC4)ccc3C2=O)c(OC)c1,"inconclusive: 5.01 µM [fluorescent, single point]",–
CNC(=O)c1cccn(Cc2ccc(C(F)(F)F)cc2)c1=O,–,inactive: 3.73%
Fc1ccc(CCNCc2cccc(Cl)c2)cc1,–,inactive: 0.711%
CN(C)C1(CNC(=O)Nc2ccc(Cl)c(Cl)c2)CCCCC1,"inconclusive: 5.01 µM [falling, single point]",–
O=C1CC(=O)N(Cc2ccccc2)C(=O)N1CCCCCCN1C(=O)CC(=O)N(Cc2ccccc2)C1=O,"inconclusive: 28.2 µM [falling, single point]",–
CCN1C(=O)NC(=O)/C(=C\c2cn(CC(=O)N3CCCCC3)c3ccccc23)C1=O,"inconclusive: 28.2 µM [fluorescent, single point]",–
CN1OCC2Cn3c(nc4ccccc43)C21 (stereo not given),"inconclusive: 5.01 µM [fluorescent, single point]",–
COc1ccc(/C=C2/C(=O)NC(=O)N(Cc3ccco3)C2=O)cc1,"inconclusive: 28.2 µM [falling, single point]",–
COc1ccc(Cn2c(O)c(/C=N/NC(=O)c3ccccc3)c(=O)[nH]c2=O)cc1,–,inactive: 2.41%
Cc1cccc(-n2c(O)c(/C=C/C=Nc3ccccc3)c(=O)[nH]c2=O)c1,"inconclusive: 12.6 µM [fluorescent, single point]",–
CCOc1ccc(N2C(=O)NC(=O)/C(=C\c3ccc(N4CCCCC4)o3)C2=O)cc1,–,inactive: 11.3%

Compound,Potency,"activity change, negative = inhibition"
O=C1NC(=S)N(c2ccccc2)C(=O)/C1=C/c1ccco1,"inconclusive: 20 µM [falling, single point]",–
COC(=O)C1C=C2c3cccc4[nH]cc(c34)CC2N(C)C1 (stereo not given),"inconclusive: 17.8 µM [fluorescent, single point]",–
O=C1NC(=O)N(c2ccccc2F)C(=O)/C1=C/c1ccc(Sc2nc3ccccc3[nH]2)o1,"inconclusive: 28.2 µM [falling, single point]",–
c1ccc(C[n+]2ccccc2)cc1,–,inactive: -0.0763%
Cc1cccc(N2C(=O)NC(=O)/C(=C\c3cnc(-c4ccccc4)nc3)C2=O)c1,–,inactive: 12.6%
CC(C)N1C(=O)/C(=C/C=C/c2ccco2)C(=O)N(Cc2ccco2)C1=O,"inconclusive: 20 µM [falling, single point]",–
COc1ccc(OC)c(N2C(=O)/C(=C/c3ccco3)C(=O)NC2=S)c1,"inconclusive: 20 µM [falling, single point]",–
CC1(C)OC(c2ccccc2)=C/C(=C/C=C2C(=O)NC(=S)NC2=O)O1,"inconclusive: 12.6 µM [fluorescent, partial curve]",–
NC(Cc1cc(O)c(O)cc1O)C(=O)O (stereo not given),"inconclusive: 28.2 µM [falling, single point]",–
CN1C[C@H](CO)C=C2c3cccc4[nH]cc(c34)C[C@H]21,"inconclusive: 3.98 µM [fluorescent, full curve]",–
CCN1/C(=C\C=C\C2=[N+](CC)c3ccccc3C2(C)C)C(C)(C)c2ccccc21,"inconclusive: 11.2 µM [fluorescent, partial curve]",–
CN1/C(=C\C=C2C(=O)NC(=S)NC2=O)C(C)(C)c2ccccc21,"inconclusive: 2.51 µM [fluorescent, full curve]",–
COc1ccc(/C=C/C(=O)c2c(O)n(CCC3=CCCCC3)c(=O)[nH]c2=O)cc1OC,"inconclusive: 28.2 µM [fluorescent, single point]",–
Cc1ccc(N2C(=O)NC(=O)/C(=C\c3ccoc3)C2=O)cc1,"inconclusive: 10 µM [fluorescent, partial curve]",–
Cc1ccc(C)c(Cn2c(C(=O)O)c(C=O)c3ccccc32)c1,"inconclusive: 12.6 µM [fluorescent, partial curve]",–
O=C1NC(=S)N(c2ccc(F)cc2)C(=O)/C1=C/c1ccco1,"inconclusive: 28.2 µM [falling, single point]",–
CCN(CC)N=O,–,inactive: 0.421%
NC(N)=N/N=C/c1ccc(N(c2ccccc2)c2ccccc2)cc1,"inconclusive: 22.4 µM [falling, single point]",–
OC(c1ccncc1)(c1ccc(F)cc1)c1ccc(F)cc1,"inconclusive: 5.01 µM [falling, single point]",–
C#CCOCCOCCOCCNc1nc(N2CCN(C(=O)CCCCCCCCCCNC(=O)[C@H]([C@@H](C)CC)n3cc(CCCCN=C(N)N)nn3)CC2)nc(N2CCN(C(=O)CCCCCCCCCCNC(=O)[C@H](CO)n3cc(CCCCCN)nn3)CC2)n1,"inconclusive: 28.2 µM [falling, single point]",–
CCCCn1c(=O)c(C(=O)Nc2ccccc2S(N)(=O)=O)c(O)c2ccccc21,"inconclusive: 22.4 µM [falling, single point]",–
O=C1NC(=O)C2(Cc3ccccc3N3CCCC32)C(=O)N1c1ccc(Cl)cc1 (stereo not given),"inconclusive: 28.2 µM [falling, single point]",–
CCNC(=O)[C@H]1O[C@@H](n2cnc3c(N)ncnc32)[C@H](O)[C@@H]1O,–,inactive: 3.08%
Cc1ccc(-c2cc(-c3ccc(C)cc3)[n+](-c3ccc(C(=O)[O-])cc3)c(-c3ccc(C)cc3)c2)cc1,"inconclusive: 22.4 µM [falling, single point]",–
O=c1[nH]c(=O)n(Cc2ccc(F)cc2)c(O)c1C=NCCCn1ccnc1,"inconclusive: 0.501 µM [falling, full curve, poor fit]",–
COC(=O)Cn1cc(/C=C2\C(=O)NC(=O)N(c3ccccc3)C2=O)c2ccccc21,–,inactive: 0.611%
O=C(O)c1cccc2c1NC(C(=O)O)C1CC(Sc3ccccc3[N+](=O)[O-])C(Cl)C21 (stereo not given),"inconclusive: 22.4 µM [falling, single point]",–
